# According to PubChem BioAssay AID488969 (Vanderbilt High Throughput Screening Facility, 2010):
# Whole data set: some 110,000 compounds, median “z-score” near -0.1, cut for the highest 2% near 2. The list shows a part of the results. Calls of active or inactive are those of the source.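 Rule for the calls: active = z-score in the third read window above 3 or below -3; inactive = the rest.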
# Molecular target: Metabotropic glutamate receptor 8 (Rattus norvegicus) (UniProt P70579)
# Assay: rat mGluR8 modulators via GIRK flux, primary screen, cell-based, thallium flux, HTS (AID 488969)
# Settings: HEK293 rat mGluR8, GIRK (G protein-gated inwardly rectifying potassium channel) thallium flux, FluoZin2; at 10 µM; stronger effect = higher value; submaximal glutamate (EC20) added with thallium
# UniProt P70579, sequence (P70579 whole entry, looked up): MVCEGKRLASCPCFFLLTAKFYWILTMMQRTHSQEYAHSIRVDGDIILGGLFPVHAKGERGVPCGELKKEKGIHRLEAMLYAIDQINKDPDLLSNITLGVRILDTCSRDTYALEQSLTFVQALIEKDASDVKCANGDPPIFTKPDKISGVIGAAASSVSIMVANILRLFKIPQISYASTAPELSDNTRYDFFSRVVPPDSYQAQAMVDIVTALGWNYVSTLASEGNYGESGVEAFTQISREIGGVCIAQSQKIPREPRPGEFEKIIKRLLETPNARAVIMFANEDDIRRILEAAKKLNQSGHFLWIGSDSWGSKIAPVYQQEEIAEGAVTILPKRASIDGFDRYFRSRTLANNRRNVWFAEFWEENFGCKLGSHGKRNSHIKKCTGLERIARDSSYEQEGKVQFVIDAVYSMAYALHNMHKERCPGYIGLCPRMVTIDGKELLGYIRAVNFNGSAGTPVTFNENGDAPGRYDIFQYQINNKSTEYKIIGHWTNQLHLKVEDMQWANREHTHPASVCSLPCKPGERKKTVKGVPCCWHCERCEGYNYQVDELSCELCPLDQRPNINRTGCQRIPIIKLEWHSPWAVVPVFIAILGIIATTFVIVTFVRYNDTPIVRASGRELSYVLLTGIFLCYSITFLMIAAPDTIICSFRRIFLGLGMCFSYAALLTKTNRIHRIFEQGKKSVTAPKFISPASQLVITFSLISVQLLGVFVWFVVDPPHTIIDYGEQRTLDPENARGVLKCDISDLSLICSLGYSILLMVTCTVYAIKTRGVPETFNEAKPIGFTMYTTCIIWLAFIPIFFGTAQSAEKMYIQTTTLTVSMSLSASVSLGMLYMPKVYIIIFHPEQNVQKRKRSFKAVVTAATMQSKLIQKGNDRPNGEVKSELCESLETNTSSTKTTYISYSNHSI
row,Structure (SMILES),z-score
1,N#Cc1nc(COc2ccc(Br)cc2)oc1N1CCCC1,0.0368
2,COC(=O)c1ccccc1NC(=O)CSc1ccc(C)cc1,-0.243
3,COCCn1nnnc1C(c1cccc(C(F)(F)F)c1)N1CCOCC1 (configuration not stated),0.00424
4,CCOC(=O)C/C(C)=N/NC(=O)c1cccs1,-0.0932
5,NCCc1nnc(SCC(N)=O)o1,0.0432
6,Cc1ccc(C(=O)Oc2coc(CSc3nnc(NC(=O)C4CC4)s3)cc2=O)cc1C,0.84
7,Cc1cccc(NC(=O)c2cc3n(n2)C(C(F)(F)F)CC(c2ccc4c(c2)OCO4)N3)c1 (configuration not stated),0.258
8,CSc1nc(C)cc(OCCNS(=O)(=O)c2ccc(C)cc2)n1,-0.0241
9,CCCn1c2ccccc2c2nnc(SCC(=O)OCC)nc21,-1.64
10,CC1CN(C(=O)COc2ncnc3ccccc23)CC(C)O1 (configuration not stated),0.198
11,N#Cc1ccc(CSc2nnc(-c3ccccn3)n2-c2ccccc2)cc1,-0.343
12,O=C(COC(=O)c1ccccn1)Nc1c(Cl)cccc1Cl,1.69
13,CCCNC(=O)COC(=O)c1ccc(OCC(=O)Nc2ccccc2OC)c(OC)c1,-0.112
14,CCc1nnc(NC(=O)c2cnccn2)s1,0.354
15,O=C(c1ccco1)N1CCN(c2ccc(Cl)c(Cl)c2)CC1,-0.938
16,Cc1c(NS(=O)(=O)c2ccc(N3CCCCC3)c([N+](=O)[O-])c2)c(=O)n(-c2ccccc2)n1C,0.0368
17,CC1(C)CC(=O)c2c(nc3ccccc3c2N)C1,-1.01
18,COc1cccc(NC(=O)c2ccc(CN3CCOCC3)cc2)c1,-0.0995
19,Cc1cc(C)n(Cc2ccc(C(=O)O)cc2)n1,0.0792
20,Cn1c(=O)c2c(ncn2Cc2cc(-c3ccccc3)no2)n(C)c1=O,1.04
21,Cc1cc(C(=O)Nc2ccc(N3CCCC3)c(Cl)c2)ccc1[N+](=O)[O-],-0.075
22,CC(C)N(O)C(=O)NC(C)(C)C,0.872
23,Cc1ccsc1C(=O)OCC(=O)c1cc(C)n(CC2CCCO2)c1C (configuration not stated),-1.25

row,Structure (SMILES),z-score
1,O=C1c2ccccc2C(Nc2ccc3c(c2)OCCO3)N1Cc1ccco1 (configuration not stated),-1.02
2,Cc1ccc(NC(=O)C(=S)NCc2ccco2)cc1,-0.0533
3,O=C(CN1C(=O)C2CCCN2c2ncc(Cl)cc21)NCc1ccc2c(c1)OCO2 (configuration not stated),-0.228
4,COc1cccc2cc(C(=O)NCc3ccco3)c(=Nc3ccc(C(=O)O)cc3)oc12,-0.381
5,O=C1/C(=C\c2ccc(-c3ccccc3Cl)o2)SC(=S)N1CC1CCCO1 (configuration not stated),0.755
6,COc1ccc(C(=O)O)cc1Nc1cc(C)nc2ncnn12,-0.682
7,O=C(COc1ccc(S(=O)(=O)N2CCCC2)cc1Cl)NCc1ccco1,0.784
8,c1ccc2c(CN3CCOCC3)c3ccccc3c(CN3CCOCC3)c2c1,-0.443
9,COc1ccc(CCNC(=O)CSc2nc3c(c(=O)n(C)c(=O)n3C)n2C)cc1OC,-0.147
10,O=C(Nc1ccc(N2CCOCC2)c(Cl)c1)c1ccccc1F,-0.337
11,CN(C)c1ccc(/C=C/C(O)=C2/C(=O)N(C)C3(C)CC2c2ccccc2O3)cc1 (configuration not stated),-0.664
12,Cc1nc2ccc(CCO)cc2s1,-0.905
13,CCOC(=O)C1C(=O)CC(C)(O)C(C(=O)OCC)C1c1ccc(N(CC)CC)cc1 (configuration not stated),-0.205
14,O=C(Nc1ccc(N2CCCCC2)c(Cl)c1)c1ccc(N2CCOCC2)c([N+](=O)[O-])c1,0.251
15,Cn1c(=O)c2c(nc(SCC(=O)NCC3CCCO3)n2C)n(C)c1=O (configuration not stated),0.254
16,CCCn1nnc(NC(=O)c2cc(Br)ccc2OC)n1,-0.376
17,CN(CC(=O)N1CCN(c2ccccn2)CC1)S(=O)(=O)c1ccccc1,0.121
18,Cc1cccc2cc(CN(Cc3cccs3)S(=O)(=O)c3ccc4c(c3)OCCO4)c(=O)[nH]c12,-1.06
19,O=[N+]([O-])c1ccc(Sc2cccc3cccnc23)c([N+](=O)[O-])c1,0.691
20,COc1ccc(/C=N/n2c(=O)[nH]c3c([nH]c4ccc(Br)cc43)c2=O)cc1CN1CCOCC1,0.012
21,O=C(OCCN1CCCCC1)c1ccc(Cl)cc1,0.422
22,COc1ccc(N2CCN(C(=S)Nc3cccc(C)c3C)CC2)cc1,-0.0361
23,N#Cc1c(NC(=O)CN2CCOCC2)oc(-c2ccccc2)c1-c1ccccc1,-2.61

row,Structure (SMILES),z-score
1,CC1(C)CC(=O)C=C(NCc2ccccc2)C1,-0.0068
2,CCCNc1nc(OCC(F)(F)F)nc(OCC(F)(F)F)n1,0.0542
3,O=C(COc1ccc(Cl)cc1)Nc1nc(-c2ccc(S(=O)(=O)N3CCOCC3)cc2)cs1,0.354
4,COc1ccc(C(=O)On2c(-c3ccc(Br)cc3)nc3ccccc3c2=O)cc1,0.263
5,Cc1c(-c2ccccc2)nc(N)c(C#N)c1-c1cccs1,-0.169
6,O=C(c1cccs1)N1CCN(Cc2ccccc2[N+](=O)[O-])CC1,-0.09
7,Cc1ccc(N2CC(C(=O)NCc3cccs3)CC2=O)cc1 (configuration not stated),0.102
8,CCOC(=O)c1c(C)nc2c(c1-c1ccc(OC)c(OC)c1)C(=O)c1ccccc1-2,-0.263
9,COC(=O)c1c(-c2ccc(F)cc2)noc1N,0.173
10,Cc1onc(-c2c(Cl)cccc2Cl)c1C(=O)N1CCCc2ccccc21,1.15
11,Cc1ccc(NC(C)C(=O)N/N=C/c2c[nH]c3ccccc23)cc1 (configuration not stated),0.0754
12,O=C(CSc1cc(Cl)ccc1Cl)NC1CCCc2ccccc21 (configuration not stated),-0.328
13,COc1ccccc1N1CCN(C(=O)CCn2c(=O)[nH]c3ccsc3c2=O)CC1,-2.41
14,N#Cc1c(SCC(N)=O)nsc1SCc1ccc(Cl)cc1,0.0118
15,COc1ccccc1NC(=O)C1CCCN(c2nc(C)cc(C)n2)C1 (configuration not stated),-0.0699
16,CCOC(=O)C1CCCN(C(=O)CN2C(=O)/C(=C/c3ccc(OC)cc3)Oc3ccccc32)C1 (configuration not stated),-0.318
17,COC(=O)c1ccc(NC(=S)NC(=O)c2cc(-c3ccccc3)nc3ccccc23)cc1,active: 8.36
18,O=C(c1ccc(Cl)cc1)N1CCC(O)(CSc2ccc(Cl)cc2Cl)CC1,-0.17
19,CCN(CC)CCCNC(=O)/C(=C\c1cccn1C)NC(=O)c1cccs1,0.845
20,O=C(COC(=O)c1cc(-c2ccncc2)nc2ccccc12)Nc1ccc2c(c1)OCO2,-0.286
21,CNc1nnc(-c2cc3ccccc3oc2=O)s1,-0.268
22,COc1ccc(CN2CN=C(Nc3nc4ccccc4s3)NC2)cc1,-0.3
23,CCc1cc2cc(C(=O)N3CCN(c4ccccc4)CC3)sc2s1,-0.159

row,Structure (SMILES),z-score
1,CCCc1nnc(NC(=O)CN2CCN(C)CC2)s1,1.46
2,O=C(N/N=C/c1cccc(Oc2ccccc2)c1)c1cccc(Br)c1,-0.0718
3,CC(C)NC(=S)N/N=C/c1cc(Br)ccc1O,active: 6.43
4,O=C1CC(N2CCN(c3nc4ccccc4s3)CC2)C(=O)N1c1ccc(F)cc1 (configuration not stated),active: 7.65
5,Cn1c(=O)c(C(=O)CN2CCOCC2)c(N)n(Cc2ccccc2)c1=O,-1.46
6,O=C(NCc1cccs1)c1cc2c(s1)-c1ccccc1OC2,-0.399
7,CNS(=O)(=O)c1ccc(C)cc1,-0.457
8,c1cncc(CNc2ccc3c(c2)OCO3)c1,-0.179
9,O=c1[nH]c2ccc(Cl)cc2c(=O)n1Cc1ccco1,active: 5.27
10,NS(=O)(=O)c1cccc(NC(=O)COC(=O)c2cc(-c3ccc(Cl)cc3)nc3ccccc23)c1,-0.131
11,COC(=O)c1ccc2c(c1)C(=O)/C(=C/c1ccc(O)cc1)O2,0.0618
12,COc1ccccc1NC(=O)c1ccccc1-c1nc(-c2ccccc2OC)no1,-0.893
13,CCOC(=O)CSc1nnc(CNC(=O)c2ccc(S(=O)(=O)N3CCCC3)cc2)n1C,-0.114
14,O=C(Nc1ccc(Cl)c(Cl)c1)N(CCCN1CCOCC1)Cc1cccs1,-1.73
15,Cc1ccc(SCC(=O)c2sc(-c3ccccc3)nc2C)cc1,0.0558
16,C/C=C(\C)CN1CCN(c2ccccc2)CC1,-0.218
17,CNC(=O)c1sccc1-n1cccc1,-0.172
18,O=C(O)/C(=C/c1cccnc1)NC(=O)c1ccccc1,-0.103
19,O=C(CO)N/N=C/c1cccc(Cl)c1Cl,-0.381
20,Cc1ccc(C)c(N2CCN(C(=O)c3csc4ccccc34)CC2)c1,-0.223
21,CCOc1cc(C(=S)N2CCC(O)CC2)ccc1OS(=O)(=O)c1ccc(Br)cc1,0.875
22,CCOC(=O)N1CCN(c2c(Nc3ccc4c(c3)OCCO4)c(=O)c2=O)CC1,0.153
23,CCC1=NN2C(=N)/C(=C\c3ccc(SCc4ccco4)o3)C(=O)N=C2S1,-0.171

row,Structure (SMILES),z-score
1,CCc1ccccc1NC(=O)CSc1nc2n[nH]c(C)c2c(=N)n1-c1cccc(OC)c1,0.747
2,CC(C)CC(=O)Nc1ccccc1Oc1ccccc1,-0.262
3,Cc1cccn2cc(CNC(=O)c3ccco3)nc12,-0.251
4,COCCNC(=O)CN(c1cc(Cl)ccc1OC)S(C)(=O)=O,0.522
5,S=C(Nc1ccc(Cl)c(Cl)c1)NN1CCOCC1,-0.308
6,CCn1c(C)nc2cc(C(=O)NNS(=O)(=O)c3ccc(C)c(C)c3)ccc21,0.342
7,CC1(C(=O)NC2CCCC2)CCC(=O)N1Cc1ccccc1 (configuration not stated),-0.199
8,CCCNCc1cc(OC)c(OCCC)cc1Cl,0.0157
9,COc1ccc(CNC(=O)c2ccc(NS(=O)(=O)c3c(C)noc3C)cc2)cc1,-0.283
10,O=C(CSc1nnnn1-c1ccc2c(c1)OCO2)NCc1ccccc1,-0.347
11,O=S(=O)(c1ccc2c(c1)OCCCO2)N1CCNCC1,0.378
12,CCCc1ncc(C(O)c2cccc3ccccc23)n1C (configuration not stated),0.327
13,O=C(CSCc1ccccc1)N1CCN(c2cccc(C(F)(F)F)c2)CC1,-0.145
14,COc1ccc(OC)c(NC=C2C(=O)OC3(CCCCC3)OC2=O)c1,-0.13
15,Cc1ccc(NS(=O)(=O)c2cc(NC(=O)C(C)Oc3ccccc3)ccc2C)c(C)c1 (configuration not stated),-0.313
16,Clc1ccc(C[n+]2cc(-c3ccccc3)n3c2CCC3)cc1Cl,0.393
17,CCN(CC)S(=O)(=O)c1ccc(NC(=O)CN(c2ccc(OC)cc2OC)S(C)(=O)=O)cc1,-0.467
18,CCN1CCN(C(c2cccnc2)c2cc(Cl)c3cccnc3c2O)CC1 (configuration not stated),-0.0956
19,COc1cc(C(=O)NCC(=O)N/N=C(/C)c2cccs2)cc(OC)c1OC,0.296
20,OC1(c2cccc(F)c2)CCN(Cc2ccncc2)CC1,-0.584
